Data published in PubChem BioAssay AID624296 (National Center for Advancing Translational Sciences (NCATS), 2012).
Out of some 350,000 compounds screened, about 9,900 (2.8%) were called active. The shares of active, inactive and inconclusive entries below differ from those in the screen. The call rests on the fitted dose curve; in most records, active means well fitted activation curve with a large enough effect; inconclusive means small, poorly fitted or top-dose-only effect; inactive means no such curve, though single readings can be large or run the other way. No potency is given beside an inconclusive call; the fits are too rough.

Experiment: A quantitative high throughput screen for small molecules that induce DNA re-replication in MCF 10a normal breast cells. Further: nearly all actives have a fitted effect of over 50% in size. On activity, positive = re-replication: % of control where 0% means no effect.
Conditions: MCF 10A DNA re-replication, Hoechst nuclear intensity, 48 h; activity, positive = re-replication: at 46.1 µM (top of the series)
Potency means the concentration at half of the fitted maximal effect; tags describe the fitted curve by direction and shape.

SMILES	Potency	activity, positive = re-replication
Cc1cc(C(=O)CSc2nnc(C3COc4ccccc4O3)n2C)c(C)n1-c1ccc(F)cc1 (stereo not given)	inconclusive [activator, partial curve, poor fit]	–
COc1ccc(CC(=O)Nc2cccc(-c3ccc4nnc(C)n4n3)c2)cc1OC	inconclusive [activator, partial curve, poor fit]	–
Cc1ccc(C)c2sc(N3CCN(C(=O)c4ccc([N+](=O)[O-])o4)CC3)nc12	active: 9.2 µM	–
COc1ccc(Cn2ccnc2)cc1Br	–	inactive: 6.09%
O=C(N/N=C/C=C\c1ccco1)c1cccs1	inconclusive [activator, single point]	–
COc1ccc(S(=O)(=O)N(CC(C)C)C2CCS(=O)(=O)C2)cc1OC (stereo not given)	inconclusive [activator, single point]	–
NC(=O)C1(c2ccccc2)OC1c1ccccc1 (stereo not given)	–	inactive: -2.89%
CCOC(=O)N/N=C/c1ccccc1F	–	inactive: -3.28%
CCn1c(-c2ccc(-c3ccccc3)cc2)c[nH]c1=S	inconclusive [activator, partial curve, poor fit]	–
C[C@H]1NC(=O)[C@]2(C)[C@@H](c3ccccc3)[C@H]3COc4ccccc4[C@@H]3N2C1=O	inconclusive [activator, full curve, poor fit]	–
CC1(C)COC(Cn2c3ccccc3c3ccccc32)O1 (stereo not given)	inconclusive [activator, single point]	–
CCOC(=S)SCC(=O)Nc1nc(-c2ccc(Br)cc2)cs1	active: 8.2 µM	–
Cc1cc(/C=C2\SC(=S)NC2=O)c(C)n1-c1cccc(O)c1	–	inactive: 12.3%
CCOc1nc(-c2ccc(OC)cc2)ccc1-c1noc(-c2cc(OC)c(OC)c(OC)c2)n1	inconclusive [activator, partial curve, poor fit]	–
Cc1ccc2nc(-c3ccc(NC(=O)COCC(=O)O)cc3)sc2c1	inconclusive [activator, single point]	–
O=C(CSc1nc(-c2ccco2)cc(C(F)(F)F)n1)Nc1ccc2c(c1)CCC2	inconclusive [activator, single point]	–
Clc1cc(Sc2ccc(Br)cc2)nnc1-c1ccccc1	inconclusive [activator, partial curve, poor fit]	–
C/C(=N\NC(=S)NC1CCCCC1)c1ccc(OC(F)F)cc1OC(F)F	inconclusive [activator, single point]	–
COC(=O)Nc1ccc(S(=O)(=O)Nc2cc(OC)nc(OC)n2)cc1	inconclusive [activator, single point]	–
CCCOc1ccc(C(=O)Nc2ccc(S(=O)(=O)N3CCN(C)CC3)cc2)cc1	inconclusive [activator, full curve]	–
COc1ccc(N=C2C(=Nc3ccc(OC)cc3)N(c3ccc(N(C)C)cc3)C(=S)N2c2ccc(OC)cc2)cc1	–	inactive: 5.37%
CCN(c1cccc(C(F)(F)F)c1)S(=O)(=O)c1ccc2c(c1)CCN2C(C)=O	inconclusive [activator, single point]	–
O=C(CSc1ccc2nnc(-c3ccccn3)n2n1)Nc1ccc(F)cc1F	–	inactive: 2.18%

SMILES	Potency	activity, positive = re-replication
Cc1cc(C)n(-c2ccc(C(=O)OCC(=O)Nc3ccc([N+](=O)[O-])cc3)cc2)n1	–	inactive: -5.44%
Cc1cnc(C(=O)Nc2ccc(N3CCOCC3)cc2)cn1	inconclusive [activator, partial curve, poor fit]	–
O=C1NC2=C(CCc3ccccc32)C(c2ccc(Br)cc2)N1 (stereo not given)	inconclusive [activator, single point]	–
COc1ccc(N2CCN(CC(=O)NCc3ccc(Cl)cc3)CC2)cc1	–	inactive: 2.38%
CC(=O)c1ccc(N2CCN(CC(=O)Nc3ccccc3C(=O)NC3CC3)CC2)c(F)c1	active: 18.4 µM	–
CCOC(=O)c1cccc(NC(=O)C2CCN(S(=O)(=O)c3cccs3)CC2)c1	–	inactive: 16.2%
O=C(c1ccco1)N1CCN(CC(=O)N2CCCc3c2c(=O)oc2ccc(O)cc32)CC1	–	inactive: -0.439%
COc1ccc(S(=O)(=O)Nc2cccc3c2O[C@H](CN(C)Cc2ccc(Oc4ccccc4)cc2)[C@@H](C)CN([C@H](C)CO)C3=O)cc1	–	inactive: -15.8%
COc1ccc(-c2csc(NC(=O)c3c(OC)cccc3OC)n2)cc1	inconclusive [activator, single point]	–
Cc1nn(-c2ccccc2)c(C)c1/C=N/NC(=O)c1cc(-c2ccc(Br)s2)[nH]n1	active: 4.11 µM	–
O=[N+]([O-])c1ccc(O)c(CSc2nnnn2-c2ccccc2)c1	–	inactive: 0.988%
C=CCCC(=O)Nc1nc(C)c(-c2csc(Nc3cc(OC)ccc3OC)n2)s1	inconclusive [activator, single point]	–
CC(=O)Nc1ccc(NC(=O)c2cccc(S(=O)(=O)N3CCCCCC3)c2)cc1	inconclusive [activator, single point]	–
Cc1ccc2[nH]c3c(NCc4ccco4)ncnc3c2c1	inconclusive [activator, partial curve, poor fit]	–
CC(Oc1ccc(F)cc1)C(=O)Nc1cc(S(=O)(=O)N2CCOCC2)ccc1N1CCCC1 (stereo not given)	inconclusive [activator, single point]	–
CCOc1ccc(NC(=O)COC(=O)C2C3CC4OC(=O)C2C4C3)cc1 (stereo not given)	–	inactive: 13.8%
CCOC(=O)N1CCN(C(=O)CSc2ccc(C(=O)OC)cc2[N+](=O)[O-])CC1	–	inactive: 2.12%
O=C(CCCn1c(=S)[nH]c2cc3c(cc2c1=O)OCO3)N1CCc2ccccc2C1	–	inactive: -182% [at 0.0737 µM]
C=CCNC(=S)N/N=C(\C)c1ccc(-n2ccnc2)cc1	inconclusive [activator, single point]	–
COc1cc(C(=O)O)c2c(c1C)OC(=O)c1c(C)cc(O)c(C=O)c1O2	–	inactive: -10.9%
COc1cc(OC)c(NC(=S)NCc2ccccc2)cc1Cl	–	inactive: -2.41%
CCN(CC)CCn1c(NCc2cc(OC)ccc2OC)nc2ccccc21	inconclusive [activator, full curve, poor fit]	–
